Consider 83 variants from the RNAGym collection of RNA variant scans (doi:10.1073/pnas.2313332121).

Variants at the background level are over-represented here.

B1: TPR 5TU (parent)
chain: GGAUCUUCUCGAUCUAACAAAAAAGACAAAUCUGCCACAAAGCUUGAGAGCAUCUUCGGAUGCAGAGGCGGCAGCCUUCGGUGGCGCGAUAGCGCCAACGUUCUCAACUAUGACACGCAAAACGCGUGCUCCGUUGAAUGGAGUUUAUCAUG

The variants in the data set derive from B1. Description: polymerase ribozyme fitness, log enrichment relative to wild type (log ratio); higher = more active; in vitro selection for triplet polymerase activity. The essentials: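 Genotype fitness is the logarithm of its enrichment divided by wild-type enrichment, using inverse-variance-weighted averages of replicates. That logarithm is base 2. Enrichment was measured by Illumina sequencing of input and output libraries from one triplicate in vitro selection round, with frozen incubation at −7 °C, on PCR-built, transcribed mutant libraries of each subunit of a heterodimeric triplet polymerase ribozyme, retaining genotypes with ≥10 input reads and ≥1 read per output.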
C14A A17C G58U G84A U102G G126C G140C U144A: the “polymerase ribozyme fitness (log ratio)” value is at most -4.2.

With U13C U44A U55A G59U G84A A150C, the “polymerase ribozyme fitness (log ratio)” value is at most -4.2.

As to C14A C43U G58C C75G, the “polymerase ribozyme fitness (log ratio)” value was at most -4.2.

Take C14A A29C U77C G86U G117U U139A G140U U148A: the “polymerase ribozyme fitness (log ratio)” value is at most -4.2.

Consider U13G U33G C54U, for which the “polymerase ribozyme fitness (log ratio)” value was at most -4.2.

U13C C38U G86A G124C: the “polymerase ribozyme fitness (log ratio)” value was -1.98.

Consider C14A U15A G50U A66G U101G C114U C118G G133A A137G, for which the “polymerase ribozyme fitness (log ratio)” value is at most -4.2.

With C14A A19C A39C C54U C75A C76U C87U U90G, the “polymerase ribozyme fitness (log ratio)” value is at most -4.2.

For U13G A23G A73G G94U G117U G141C A142C U146C, the “polymerase ribozyme fitness (log ratio)” value was at most -4.2.

With U13G A26U U33C A113U C114A G141C, the “polymerase ribozyme fitness (log ratio)” value is at most -4.2.

Turning to U13C G46A C57G C76G G83C, the “polymerase ribozyme fitness (log ratio)” value is at most -4.2.

Regarding U13A C32U A41C G88A A91G A97G G126U G141U, the “polymerase ribozyme fitness (log ratio)” value was at most -4.2.

Regarding C14A A16U A49G G50A C57A A60G C95G U101C A110G, the “polymerase ribozyme fitness (log ratio)” value is at most -4.2.

U13A C27G G84A: the “polymerase ribozyme fitness (log ratio)” value was at most -4.2.

For the variant U13G A24U A28U A29U C54U C69A C76G G94U A97C U135C, the “polymerase ribozyme fitness (log ratio)” value was at most -4.2.

In the case of U13A G42U U44G U55G C85A C87A C95A G100A, the “polymerase ribozyme fitness (log ratio)” value is at most -4.2.

For U13C U104G, the “polymerase ribozyme fitness (log ratio)” value is -1.57.

Consider C14A A60G C85G C118G C132U, for which the “polymerase ribozyme fitness (log ratio)” value was -3.89.

For the variant U13A C14U A60C C93G C103G A122G U130A C131A, the “polymerase ribozyme fitness (log ratio)” value was at most -4.2.

Take U13G A28U A64C G68A C79U: the “polymerase ribozyme fitness (log ratio)” value is at most -4.2.

Consider C14A A21C A22C, for which the “polymerase ribozyme fitness (log ratio)” value is -0.829.

With C14A A19C C93U C125A, the “polymerase ribozyme fitness (log ratio)” value is -3.52.

U13A A52U U135C: the “polymerase ribozyme fitness (log ratio)” value is at most -4.2.

On to U13C A47G C69U C87U A97C A106U A121G C123G A142C, for which the “polymerase ribozyme fitness (log ratio)” value is at most -4.2.

In the case of U13G C32G A49U G83U G86U C87U C103A A150G, the “polymerase ribozyme fitness (log ratio)” value was at most -4.2.

Regarding U13G U31C A49C C75A C85G G143C, the “polymerase ribozyme fitness (log ratio)” value is at most -4.2.

Take U13G C43U C51U C93G C105A C108U A115U A137C U148A: the “polymerase ribozyme fitness (log ratio)” value was at most -4.2.

For C14A A23C U56A C75G U77A C93U C95G U102C, the “polymerase ribozyme fitness (log ratio)” value is at most -4.2.

U13G U61A U111A: the “polymerase ribozyme fitness (log ratio)” value is at most -4.2.

For C14A A52U A89U G94C A97C, the “polymerase ribozyme fitness (log ratio)” value was at most -4.2.

Consider U13G A21U C57U G68A A73U G92C C103A, for which the “polymerase ribozyme fitness (log ratio)” value was at most -4.2.

With U13A C38G C54A C76A C93G, the “polymerase ribozyme fitness (log ratio)” value was at most -4.2.

As for C14A G68A G84A G136C, the “polymerase ribozyme fitness (log ratio)” value is at most -4.2.

Take C14A A28U C38U A91G: the “polymerase ribozyme fitness (log ratio)” value is at most -4.2.

For U13C A29G C35U A52G C54U G59U G70A U78C G80C G136A, the “polymerase ribozyme fitness (log ratio)” value was at most -4.2.

For the variant U13C C87G, the “polymerase ribozyme fitness (log ratio)” value was at most -4.2.

Consider U13G, for which the “polymerase ribozyme fitness (log ratio)” value was -0.261.

For U13C, the “polymerase ribozyme fitness (log ratio)” value is -0.269.

Regarding U13G A52C C85G G86U C129G, the “polymerase ribozyme fitness (log ratio)” value is at most -4.2.

For the variant U13C U15G A39G A110G A142U, the “polymerase ribozyme fitness (log ratio)” value is at most -4.2.

As to C14A G46C C75G C87A A89U U90G C96U U102G G140A, the “polymerase ribozyme fitness (log ratio)” value is at most -4.2.

Regarding C14A G62A C85A G141A, the “polymerase ribozyme fitness (log ratio)” value was -3.57.

As to C14A C85A C129U, the “polymerase ribozyme fitness (log ratio)” value was -2.79.

For U13C A20C A29C C38A C116G G124C C131U, the “polymerase ribozyme fitness (log ratio)” value is at most -4.2.

For U13A A98U U148G, the “polymerase ribozyme fitness (log ratio)” value is at most -4.2.

As for U13G C14G U31G, the “polymerase ribozyme fitness (log ratio)” value was -1.43.

Turning to C14A U55A U56A G100C, the “polymerase ribozyme fitness (log ratio)” value was at most -4.2.

U13G A20C A49C G67A U139C: the “polymerase ribozyme fitness (log ratio)” value was at most -4.2.

On to U13A C27G U82G C96U A120G, for which the “polymerase ribozyme fitness (log ratio)” value was at most -4.2.

U13G G58A C95U C96G: the “polymerase ribozyme fitness (log ratio)” value was -4.19.

Take U13A U78G A91U U134A U146G: the “polymerase ribozyme fitness (log ratio)” value is at most -4.2.

Consider C14A U61G U111A A121C, for which the “polymerase ribozyme fitness (log ratio)” value is at most -4.2.

Take U13G A40G U56A A60G A64G G74U A91U G140U: the “polymerase ribozyme fitness (log ratio)” value is at most -4.2.

In the case of C14A U44A G50C U53A C54U G81U G84C U145C, the “polymerase ribozyme fitness (log ratio)” value was at most -4.2.

With C14A C72G G80C C99U, the “polymerase ribozyme fitness (log ratio)” value is at most -4.2.

Take U13G C27U U55A G141C: the “polymerase ribozyme fitness (log ratio)” value is at most -4.2.

As for U13G G46A G83A U101A U134A U135C, the “polymerase ribozyme fitness (log ratio)” value was at most -4.2.

In the case of U13G A28C U33C U45A A73C G92C U135G, the “polymerase ribozyme fitness (log ratio)” value was at most -4.2.

Regarding U13A C76G U90C G92U A97C U144C, the “polymerase ribozyme fitness (log ratio)” value was at most -4.2.

For U13G A39U C76G G92U C108G U127G U145A U148C, the “polymerase ribozyme fitness (log ratio)” value is at most -4.2.

Turning to C14A G68A A73C G84A G88A G117C, the “polymerase ribozyme fitness (log ratio)” value is at most -4.2.

For the variant U13G C69A A73G C87U, the “polymerase ribozyme fitness (log ratio)” value was at most -4.2.

With C14A U53A G94C, the “polymerase ribozyme fitness (log ratio)” value is -3.67.

Consider U13A U56G C79A C93A, for which the “polymerase ribozyme fitness (log ratio)” value is at most -4.2.

For the variant U13G G92C, the “polymerase ribozyme fitness (log ratio)” value was -2.36.

On to U13G G84A C114A G136C, for which the “polymerase ribozyme fitness (log ratio)” value is at most -4.2.

As to U13G G84A C85A C116A G143C, the “polymerase ribozyme fitness (log ratio)” value is at most -4.2.

On to U13G G84U, for which the “polymerase ribozyme fitness (log ratio)” value is -3.13.

As for U13C A20U A47G U56G C85A G88U A147U, the “polymerase ribozyme fitness (log ratio)” value is at most -4.2.

For U13G C85U C96U G100A A115C, the “polymerase ribozyme fitness (log ratio)” value was at most -4.2.

For the variant U13G A24U C32G U77A A121G A142G, the “polymerase ribozyme fitness (log ratio)” value was at most -4.2.

On to U13G C87G, for which the “polymerase ribozyme fitness (log ratio)” value is at most -4.2.

Regarding U13G A26U C32G U33A C54G A66U C118A U144A, the “polymerase ribozyme fitness (log ratio)” value is at most -4.2.

Regarding U13A C69A A120C, the “polymerase ribozyme fitness (log ratio)” value is -2.74.

Take U13G A17U A24C A28C C85G G86U C96U U135A: the “polymerase ribozyme fitness (log ratio)” value is at most -4.2.

With U13A U15G C35A A66G A98U C108G U111A C129U, the “polymerase ribozyme fitness (log ratio)” value was at most -4.2.

As for U13G A19C A40U A52C G74C C93U G140A U148A C149U, the “polymerase ribozyme fitness (log ratio)” value is at most -4.2.

For U13G A28C A47G C57U G70C C96U U134G A150U, the “polymerase ribozyme fitness (log ratio)” value is at most -4.2.

For U13G G48A C75A C93G C125U, the “polymerase ribozyme fitness (log ratio)” value was at most -4.2.

Consider U13G U33G U56A A60U G143U, for which the “polymerase ribozyme fitness (log ratio)” value is at most -4.2.

Turning to U13G C75U A91C, the “polymerase ribozyme fitness (log ratio)” value is at most -4.2.

For U13A C76U G80U G84U C85G C118A, the “polymerase ribozyme fitness (log ratio)” value was at most -4.2.

For the variant U13G A137U, the “polymerase ribozyme fitness (log ratio)” value is at most -4.2.
